{"source": "PubChem BioAssay (NCATS)", "assay": "Cell-based coincidence reporter assay to measure PMP22 gene transcription in S16 Pmp22-F2sN cells - Confirmatory screen (AID 1508646)", "settings": "S16 Schwann cells Pmp22-F2sN, dual luciferase, 24 h", "method_in_brief": "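Coincidence reporter read as sequential FLuc then NLuc luminescence (Nano-Glo Dual-Luciferase, 10 min each). Engineered S16 Pmp22-F2sN Schwann cells, 500-1,000 per well in DMEM/10% FBS, were exposed to compounds for 24 h, 37C.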", "key": {"[1]": {"settings": "measured here: FLuc reporter channel"}, "[2]": {"settings": "measured here: NLuc reporter channel"}}, "note": "The list shows a part of the results. The main result of the screen is listed elsewhere. These columns were measured beside it and carry no call. Most of these compounds were active or inconclusive in the main read-out, so they are no random draw. The note in brackets gives the kind of curve behind each potency; many fits are weak. Tags describe the fitted curve by direction and shape.", "data": [{"smiles": "COc1ccc(Cl)cc1NC(=O)CCCS(=O)(=O)c1nc(-c2ccc(OC)c(OC)c2)cc(C(F)(F)F)n1", "values": [{"measurement": "AC50", "setting": "[1]", "value": "7.69 µM [falling, partial curve]"}, {"measurement": "AC50", "setting": "[2]", "value": "10.9 µM [falling, full curve]"}]}, {"smiles": "COc1ccc(NC(=O)C2CCCN(c3nnc(C)c4c(C)n(-c5ccccc5)nc34)C2)cc1Cl", "note": "(stereo not given)", "values": [{"measurement": "AC50", "setting": "[1]", "value": "27.3 µM [falling, partial curve]"}, {"measurement": "AC50", "setting": "[2]", "value": "27.3 µM [falling, partial curve]"}]}, {"smiles": "COc1cccc(NC(=O)N(Cc2cn(C)c3ccccc23)C2CCCCC2)c1", "values": [{"measurement": "AC50", "setting": "[1]", "value": "27.3 µM [falling, partial curve]"}, {"measurement": "AC50", "setting": "[2]", "value": "21.7 µM [falling, partial curve]"}]}, {"smiles": "COc1cc(OC)c(OC)cc1CN1CCc2nc(N3CCN(c4ccccc4F)CC3)ncc2C1", "values": [{"measurement": "AC50", "setting": "[1]", "value": "27.3 µM [falling, partial curve, poor fit]"}, {"measurement": "AC50", "setting": "[2]", "value": "43.2 µM [falling, single point]"}]}, {"smiles": "COc1cccc(NS(=O)(=O)c2cc(-c3cnc(C4CC4)o3)ccc2C)c1", "values": [{"measurement": "AC50", "setting": "[1]", "value": "1.93 µM [falling, full curve]"}, {"measurement": "AC50", "setting": "[2]", "value": "3.85 µM [falling, full curve]"}]}, {"smiles": "O=C(NCCCN1CCN(c2cccc(Cl)c2)CC1)c1nnc(Cc2ccc(F)cc2Cl)o1", "values": [{"measurement": "AC50", "setting": "[1]", "value": "24.3 µM [falling, partial curve]"}, {"measurement": "AC50", "setting": "[2]", "value": "27.3 µM [falling, partial curve]"}]}, {"smiles": "CCCC(=O)Nc1nnc(SCc2cc(=O)c3ccc(C)cc3[nH]2)s1", "values": [{"measurement": "AC50", "setting": "[1]", "value": "2.43 µM [falling, partial curve, poor fit]"}, {"measurement": "AC50", "setting": "[2]", "value": "9.68 µM [falling, full curve, poor fit]"}]}, {"smiles": "CCC1=Nc2cc(C(=O)NCCCOC(C)C)ccc2Sc2ccc(C)cc21", "values": [{"measurement": "AC50", "setting": "[1]", "value": "13.7 µM [falling, partial curve, poor fit]"}, {"measurement": "AC50", "setting": "[2]", "value": "9.68 µM [falling, partial curve]"}]}, {"smiles": "CCN(CC)CCNC(=O)c1cc(-c2ccc(Br)s2)nc2ccccc12", "values": [{"measurement": "AC50", "setting": "[1]", "value": "15.3 µM [falling, partial curve]"}, {"measurement": "AC50", "setting": "[2]", "value": "19.3 µM [falling, partial curve]"}]}, {"smiles": "Clc1cccc(N2CCN(c3ncnc4c3nc3n4CCCCC3)CC2)c1", "values": [{"measurement": "AC50", "setting": "[1]", "value": "19.3 µM [falling, partial curve]"}, {"measurement": "AC50", "setting": "[2]", "value": "27.3 µM [falling, partial curve]"}]}, {"smiles": "Cc1ccc(NC(=O)c2nc(S(=O)(=O)Cc3cccc(C)c3)ncc2Cl)cc1", "values": [{"measurement": "AC50", "setting": "[1]", "value": "10.9 µM [falling, partial curve]"}, {"measurement": "AC50", "setting": "[2]", "value": "15.3 µM [falling, partial curve]"}]}, {"smiles": "O=C(CCS(=O)(=O)c1nc(-c2cccs2)cc(C(F)(F)F)n1)Nc1ccc(Br)cc1", "values": [{"measurement": "AC50", "setting": "[1]", "value": "10.9 µM [falling, partial curve]"}, {"measurement": "AC50", "setting": "[2]", "value": "10.9 µM [falling, full curve]"}]}, {"smiles": "O=C(NC1CCN(Cc2ccccc2)CC1)c1ccc(Cn2c(=O)c3ccccc3n(Cc3ccc(Cl)cc3)c2=O)cc1", "values": [{"measurement": "AC50", "setting": "[1]", "value": "9.68 µM [falling, full curve]"}, {"measurement": "AC50", "setting": "[2]", "value": "12.2 µM [falling, full curve]"}]}, {"smiles": "O=C(CSc1nc2c(sc3ccccc32)c(=O)n1CCCC(=O)NC1CCCC1)Nc1ccc(F)cc1", "values": [{"measurement": "AC50", "setting": "[1]", "value": "9.68 µM [falling, partial curve]"}, {"measurement": "AC50", "setting": "[2]", "value": "12.2 µM [falling, full curve]"}]}, {"smiles": "COc1ccccc1Nc1c2c(nc3ccc(NC(=O)c4cccc(F)c4)cc13)CCCC2", "values": [{"measurement": "AC50", "setting": "[1]", "value": "10.9 µM [falling, full curve]"}, {"measurement": "AC50", "setting": "[2]", "value": "12.2 µM [falling, full curve]"}]}, {"smiles": "COc1cc(OC)c(NS(=O)(=O)c2ccc3c(c2)NC(=O)CCS3)cc1Cl", "values": [{"measurement": "AC50", "setting": "[1]", "value": "43.2 µM [falling, single point]"}, {"measurement": "AC50", "setting": "[2]", "value": "43.2 µM [falling, single point]"}]}, {"smiles": "O=c1c2c3c(sc2n(Cc2ccccc2F)c(=O)n1-c1ccc(Cl)cc1)CCCC3", "values": [{"measurement": "AC50", "setting": "[1]", "value": "7.69 µM [falling, full curve, poor fit]"}, {"measurement": "AC50", "setting": "[2]", "value": "6.11 µM [falling, full curve]"}]}, {"smiles": "O=C(Nc1ccccc1C(F)(F)F)N1CCN(c2ccc3nnc(-c4ccc(F)cc4)n3n2)CC1", "values": [{"measurement": "AC50", "setting": "[1]", "value": "5.44 µM [falling, full curve, poor fit]"}, {"measurement": "AC50", "setting": "[2]", "value": "6.11 µM [falling, full curve, poor fit]"}]}, {"smiles": "Cc1ccc(Cn2c(C)c3cnn(CC(=O)NCc4ccccc4)c(=O)c3c2C)cc1", "values": [{"measurement": "AC50", "setting": "[1]", "value": "15.3 µM [falling, partial curve, poor fit]"}, {"measurement": "AC50", "setting": "[2]", "value": "19.3 µM [falling, partial curve]"}]}, {"smiles": "CCCN1CCN(CCCNC(=O)Cn2c(-c3cccs3)cc3cc(Cl)ccc32)CC1", "values": [{"measurement": "AC50", "setting": "[1]", "value": "21.7 µM [falling, partial curve]"}, {"measurement": "AC50", "setting": "[2]", "value": "24.3 µM [falling, partial curve]"}]}, {"smiles": "COc1ccc(-c2cc(C(F)(F)F)nc(S(C)(=O)=O)n2)cc1", "values": [{"measurement": "AC50", "setting": "[1]", "value": "13.7 µM [falling, partial curve]"}, {"measurement": "AC50", "setting": "[2]", "value": "19.3 µM [falling, partial curve]"}]}, {"smiles": "Cc1cc(C)cc(Nc2cc(C(=O)NCCCN(C)C3CCCCC3)c3ccccc3n2)c1", "values": [{"measurement": "AC50", "setting": "[1]", "value": "15.3 µM [falling, full curve]"}, {"measurement": "AC50", "setting": "[2]", "value": "15.3 µM [falling, full curve]"}]}, {"smiles": "COCCCNC(=O)c1ccc2c(c1)N=C(C)c1c(C)ccc(C)c1S2", "values": [{"measurement": "AC50", "setting": "[1]", "value": "0.306 µM [falling, full curve]"}, {"measurement": "AC50", "setting": "[2]", "value": "0.306 µM [falling, full curve]"}]}, {"smiles": "Cc1cc(Nc2ccc(F)cc2)nc(-n2nc(C)cc2C)n1", "values": [{"measurement": "AC50", "setting": "[1]", "value": "19.3 µM [falling, partial curve]"}, {"measurement": "AC50", "setting": "[2]", "value": "13.7 µM [falling, partial curve]"}]}, {"smiles": "O=S(=O)(c1ccc(Cl)cc1)c1nnn2c1nc(NC1CCCC1)c1sccc12", "values": [{"measurement": "AC50", "setting": "[1]", "value": "12.2 µM [falling, partial curve]"}, {"measurement": "AC50", "setting": "[2]", "value": "30.6 µM [falling, single point]"}]}]}
